# Measured values as given in the supplement of paper PMC3334620.
# Over roughly 33,000 sequences, “E-score (-0.5 to 0.5)” has its median near -0.032; the highest 2% begin near 0.36. This is one part of the list.
# Target: T1, Sko1 (UniProt Q02100)
# T1 sequence: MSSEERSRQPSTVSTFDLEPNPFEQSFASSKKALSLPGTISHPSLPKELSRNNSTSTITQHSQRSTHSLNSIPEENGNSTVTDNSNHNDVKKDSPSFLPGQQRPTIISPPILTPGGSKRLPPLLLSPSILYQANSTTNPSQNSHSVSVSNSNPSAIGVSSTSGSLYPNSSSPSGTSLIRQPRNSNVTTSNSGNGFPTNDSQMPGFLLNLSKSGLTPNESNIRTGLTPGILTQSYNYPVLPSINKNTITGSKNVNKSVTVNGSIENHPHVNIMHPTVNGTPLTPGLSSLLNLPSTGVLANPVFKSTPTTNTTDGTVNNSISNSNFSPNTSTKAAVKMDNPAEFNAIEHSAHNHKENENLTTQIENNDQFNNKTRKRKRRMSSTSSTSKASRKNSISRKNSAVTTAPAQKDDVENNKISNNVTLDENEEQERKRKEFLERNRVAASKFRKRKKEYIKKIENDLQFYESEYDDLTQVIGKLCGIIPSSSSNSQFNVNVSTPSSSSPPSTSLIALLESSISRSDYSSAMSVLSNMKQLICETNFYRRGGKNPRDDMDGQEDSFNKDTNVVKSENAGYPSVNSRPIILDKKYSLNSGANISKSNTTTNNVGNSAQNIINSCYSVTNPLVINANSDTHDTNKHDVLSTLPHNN
# Experiment: PBM E-score (8-mer binding enrichment) (E-score (-0.5 to 0.5)); higher = stronger / more preferred TF binding; most listed sequences are background and not binding sites
# Conditions: protein concentration: 200 nM; construct: GST-full length
# Outline: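 For each ungapped eight-base word taken together with its reverse complement, the Universal PBM Analysis Suite assigned an E-score. Binding data came from GST-tagged yeast transcription factors, applied at about 100-200 nM, on universal all-10-mer Agilent arrays made double-stranded by primer extension. Fluorescent anti-GST marked bound protein, and scans were normalised with masliner.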
row,Sequence,PBM E-score
1,CTGTCCGA,-0.0977
2,ATGGATCA,-0.194
3,CCTGTGGC,-0.105
4,AAGCCTGG,-0.189
5,AGTTTTAA,0.0928
6,AGGCTACG,0.0926
7,GCGCGAAA,0.0946
8,ACCGAACG,0.0347
9,GCTCCCTA,-0.3
10,CCTAAACG,0.0295
11,GCTCGGAA,-0.217
12,GTAAAAAC,0.184
13,AGCTGTGG,-0.296
14,CTGTTTGA,-0.00062
15,CGCTGTTC,-0.111
16,GACTTCGC,0.0748
17,CCCTAGAC,-0.0592
18,AGTCCCTG,-0.259
19,AATGTAGG,-0.175
20,CTAATCCA,-0.0327
21,GAACTATC,0.0113
22,CAGAACCG,-0.125
23,TAGCCCAA,-0.0464
24,CAACAAAC,0.0578
25,GTGCACAC,0.133

row,Sequence,PBM E-score
1,ACACTCTG,-0.123
2,ATAGCGCG,0.0665
3,ACTCTGCG,0.0343
4,CCGCCACC,-0.154
5,GCTTCTCC,-0.281
6,TTCGCCAA,-0.0834
7,CTGGTACC,-0.37
8,CGTCAATA,0.359
9,ATGCGGAC,0.0362
10,ACAGTGAC,0.223
11,CATCGGCG,-0.243
12,ATTTGGCG,0.0511
13,AGACTCGA,-0.207
14,GGTACCAC,-0.142
15,ATAGTACC,0.0243
16,GCATAAGA,0.00788
17,CTCTGGAC,-0.0641
18,CTCGGCTA,-0.123
19,AATACCAC,0.0573
20,ATTGCCAG,-0.0431
21,AGCACTGC,-0.0788
22,AAGTCAGC,0.0973
23,ACTGTCCT,-0.107
24,AATTTCGG,-0.0489
25,AAATTTTG,0.161

row,Sequence,PBM E-score
1,GGCCCTTA,-0.171
2,GCAACTCA,-0.00054
3,AGGGTTCC,-0.333
4,CCGGCGAC,-0.368
5,ACAATAAC,0.214
6,ACAAAAGG,-0.247
7,CTGAAGCA,0.0252
8,CTACCCAG,-0.222
9,TAGCCTGA,-0.0768
10,CCGCATCC,-0.189
11,CACTTAGG,-0.00845
12,ATTATAGA,0.189
13,CTCTTCGC,0.0109
14,CAGGGGAG,-0.266
15,CGGTTACG,0.291
16,ACTTGCCA,-0.162
17,CTCATAGC,-0.107
18,ATGTGAGG,-0.0702
19,AGGGGGAT,-0.271
20,GAATTTTA,0.128
21,ACTAGAAC,0.0484
22,ATTTATTC,0.189
23,GATCGATA,-0.00557
24,GGTACATA,0.062
25,GAAAACGC,0.102

row,Sequence,PBM E-score
1,CCACAGAA,0.00404
2,AATCGCAC,0.069
3,AACACGAT,0.128
4,ATTGGGTA,0.0853
5,GTTTATCA,0.26
6,ACGAGTTG,0.124
7,ACGCGTTA,0.222
8,GGAATGCA,0.0008
9,AGAGACTG,-0.282
10,AGTTAGAT,0.184
11,ACCGAGCA,0.00405
12,ACTCGCCA,-0.052
13,ATCACCGC,-0.0856
14,AACCTCGG,-0.146
15,GGTTAGAC,-0.158
16,CTTAGAAA,0.0338
17,CTCGCCTC,-0.186
18,CGCGCGGA,0.00201
19,CTGGATAC,-0.145
20,CTGCTCGC,-0.248
21,ATTCTGCC,-0.2
22,TAGCAGGA,-0.236
23,AAGTTCTG,0.102
24,CAGAGACC,-0.106
25,AATAGAAG,-0.035

row,Sequence,PBM E-score
1,GGGCGAAA,0.0756
2,AACATGAT,0.172
3,CACGAACC,0.011
4,AAACACAC,0.167
5,AAGCGATC,-0.0345
6,TAATCCTA,0.0381
7,ACCTACAT,0.0291
8,CGCAAGAG,-0.00497
9,GGGGCTAC,-0.175
10,GGATAGAC,0.046
11,ACGGTACT,-0.0493
12,CATCAACG,0.19
13,ACATCACT,0.337
14,GATAGGAC,-0.241
15,GGGTTAGA,-0.118
16,ACGACATG,0.356
17,TGGTACCA,-0.355
18,CAGCAATC,-0.0896
19,AAAACCCG,-0.0449
20,CTATTCAC,0.0572
21,CAAGAAGA,-0.0303
22,AAGAGTGT,-0.0657
23,GCATTACA,0.111
24,CAAAAACC,0.0308
25,GCTGGGGA,-0.236

row,Sequence,PBM E-score
1,CTCGCACA,-0.0527
2,CTGACAGC,-0.301
3,CCAAAGTC,-0.0817
4,CGTTTTGC,0.177
5,ATGTGTCC,0.00598
6,GGCTGGAA,-0.198
7,AACTAAGT,0.0399
8,GGCCAAGA,-0.212
9,CGTGAGAG,-0.119
10,CCCTGCAG,-0.119
11,CCTTCACG,0.126
12,CTCGATGC,-0.229
13,GGCTACTA,0.0535
14,ACGATCAT,0.15
15,CATCCCAA,-0.0945
16,CAGACAGA,-0.0421
17,GGTACGAC,0.151
18,CACTCCGC,-0.261
19,GCACTCCA,-0.248
20,ACTTTCAG,-0.00811
21,GCCGAGAC,-0.218
22,CATATCTC,0.133
23,AAGTACGT,0.44
24,CGGGATCA,-0.0763
25,ATCGCTTG,-0.0875

row,Sequence,PBM E-score
1,AGCCCAAT,-0.0554
2,GTCGGCAC,-0.183
3,ACGAATGC,0.231
4,AGGCAATC,0.0282
5,CCTTTGTA,-0.0286
6,CCACTGGG,-0.0298
7,ACTTTTCA,0.0528
8,AGCACACG,0.134
9,AAAATAAC,0.0938
10,CACGTGAA,0.319
11,CGGACATC,-0.128
12,CGCCGAAA,-0.047
13,TATGGAAA,-0.0408
14,CAGGGTAA,-0.0488
15,CAGGATCA,-0.0822
16,CCTACTAG,-0.0336
17,CGCGGACC,-0.361
18,ATATGGCG,0.0962
19,AGTGGATC,-0.157
20,GGTCAAGA,-0.0993
21,ATATCTCC,-0.152
22,GTGAAGAA,0.0795
